In PubChem BioAssay AID624296 (National Center for Advancing Translational Sciences (NCATS), 2012):
Among all 350,000 compounds or so, about 9,900 (2.8%) were called active. This list was built around the results that the source calls inconclusive (neither active nor inactive); the mix of calls is not that of the screen. Calls follow the shape of the dose curve; as a rule, active = well fitted activation curve with a large enough effect; inconclusive = small, poorly fitted or top-dose-only effect; inactive = no such curve, though single readings can be large or run the other way. No potency is given beside an inconclusive call; the fits are too rough.

Test: A quantitative high throughput screen for small molecules that induce DNA re-replication in MCF 10a normal breast cells. Also: nearly all actives have a fitted effect of over 50% in size. As to activity, positive = re-replication: % of control where 0% means no effect.
Conditions: MCF 10A DNA re-replication, Hoechst nuclear intensity, 48 h; activity, positive = re-replication: at 46.1 µM (top of the series)
Potency is read from the fitted curve at half-maximal effect; tags tell the direction and shape of the fitted curve.

Row | SMILES | Potency | activity, positive = re-replication
1 | CCOc1ccc(C(C)=O)cc1CN1C(=O)c2ccccc2S1(=O)=O | inactive | –
2 | COC(C[C@H]1O[C@H]1[C@H](O)[C@H](C)OCc1ccccc1)OC | inactive | –
3 | COc1ccc(CN(C)CC(=O)Nc2ccccc2C(=O)NC2CC2)cc1 | inactive | –
4 | FC(F)(F)C1CC(c2cccs2)Nc2ncnn21 (stereo not drawn) | inconclusive [activator, partial curve, poor fit] | –
5 | C=CC[C@H](CC(=O)N(CCO)Cc1ccccc1)C(=O)N[C@@H](C)COC(=O)[C@H](CC=C)CC(=O)OC(C)(C)C | inactive | –
6 | COc1cc(/C=C2\SC(=S)N(Nc3ccccc3)C2=O)ccc1O | inconclusive [activator, single point] | –
7 | COc1cc(/C=C/C(=O)OCC(=O)N2CCOCC2)ccc1OCC#N | – | inconclusive: 32.2% [activator]
8 | CCCCCN(C(=O)COC(=O)c1ccc(C)cc1)c1c(N)n(CCCC)c(=O)[nH]c1=O | inconclusive [activator, single point] | –
9 | Cc1nc(SCC(=O)NC(C)(C)C)c2c(-c3cccs3)csc2n1 | inconclusive [activator, full curve, poor fit] | –
10 | Cc1ccc(NC(=O)[C@H](NC(=O)[C@@H]2Cc3ccccc3CN2)c2ccccc2)c(C)c1 | inactive | –
11 | CS(=O)(=O)N1CCCC(C(=O)N2CCc3ccccc3C2)C1 (stereo not drawn) | active: 2.91 µM | –
12 | CCCN(C(=O)c1cn(-c2ccccc2)nc1-c1ccc(OC)cc1)C1CCS(=O)(=O)C1 (stereo not drawn) | inactive | –
13 | Cc1ccc(CNC(=O)C2CCCN2C(=O)Nc2ccccc2)cc1 (stereo not drawn) | active: 0.651 µM | –
14 | Cc1ccc(S(=O)(=O)Nc2cccc(C(=O)NCc3cccnc3)c2)cc1F | active: 2.91 µM | –
15 | CCOc1c(S(=O)(=O)N2CCCC2)ccc(Cl)c1Cl | inconclusive [activator, partial curve, poor fit] | –
16 | CC1=NOC(=O)/C1=C\c1ccc(-c2ccc(Br)cc2)o1 | inconclusive [activator, single point] | –
17 | O=S1(=O)C=C(Sc2nc3ccccc3s2)c2ccccc21 | active: 2.91 µM | –
18 | Cc1ccc(Nc2nnc(SCC(=O)c3c(N)n(C4CC4)c(=O)[nH]c3=O)s2)cc1C | inconclusive [activator, partial curve] | –
19 | CC1(CC(=O)N/N=C/c2ccc(OCc3ccc(Cl)cc3Cl)cc2)OCCCO1 | inconclusive [activator, partial curve, poor fit] | –
20 | COc1ccccc1OCCCOc1ccc(C)cc1Br | inconclusive [activator, partial curve, poor fit] | –
21 | CC1(C)Cc2ccccc2C(/C(=N\Nc2cccc(Cl)c2)C(N)=O)=N1 | inconclusive [activator, partial curve, poor fit] | –
22 | CC1(C)N=C(N)N=C(N)N1c1ccccc1 | inconclusive [activator, full curve] | –
23 | CN1CCN(CC(O)(c2ccc(Cl)cc2)c2ccc(Cl)cc2)CC1 | inactive | –

Row | SMILES | Potency | activity, positive = re-replication
24 | O=C1ON=C(c2ccccc2)/C1=C/c1ccc(OS(=O)(=O)c2ccccc2)cc1 | inconclusive [activator, partial curve, poor fit] | –
25 | COc1ccc(CC(=O)Nc2ccc(OC(C)=O)cc2C(=O)O)cc1 | inconclusive [activator, partial curve, poor fit] | –
26 | CN(CC(=O)Nc1cccc(F)c1)C(=O)c1ccccc1CCc1ccccc1 | inconclusive [activator, partial curve, poor fit] | –
27 | O=C(NC(=S)NC1CCCCC1)c1ccccc1[N+](=O)[O-] | inactive | –
28 | COCCn1c(SCC(=O)NC(=O)Cc2ccccc2)nc2ccccc2c1=O | inactive | –
29 | CN(C)S(=O)(=O)c1cccc(COC(=O)CNC(=O)c2ccc(Br)o2)c1 | inconclusive [activator, single point] | –
30 | Cc1cc(=O)oc2cc(OCC(=O)OCC(=O)Nc3ccc(C(C)C)cc3)ccc12 | inactive | –
31 | CCc1cc(C(=O)N/N=C/c2c(C)[nH]c3ccccc23)cs1 | inconclusive [activator, single point] | –
32 | CCc1nc(SCc2ccccc2)n[nH]1 | inconclusive [activator, partial curve, poor fit] | –
33 | C#CCn1c(=NC(=O)c2ccco2)sc2cccc(Cl)c21 | inconclusive [activator, single point] | –
34 | Cc1noc(C)c1COc1ccc(C(=O)NNC(=O)c2ccccc2)cc1 | active: 20.6 µM | –
35 | CN(c1ccccc1C(=O)N1CCN(Cc2ccc3c(c2)OCO3)CC1)S(C)(=O)=O | inactive | –
36 | O=C(NCCN1CCOCC1)c1ccc(/C=C2\Sc3ccccc3N(Cc3ccccc3F)C2=O)cc1 | inconclusive [activator, partial curve, poor fit] | –
37 | CCNS(=O)(=O)c1ccc(NC(=O)c2ccccc2)cc1 | inconclusive [activator, single point] | –
38 | Cc1ccc2nc(SC(C(=O)Nc3ccc(F)cc3)c3ccccc3)[nH]c2c1 (stereo not drawn) | inconclusive [activator, single point] | –
39 | C=CCSc1nc2ccccc2c2nc(-c3ccccc3)nn12 | inconclusive [activator, full curve, poor fit] | –
40 | CCN1CCC[C@H]1CNC(=O)c1c(O)c(Cl)cc(Cl)c1OC | inconclusive [activator, full curve, poor fit] | –
41 | CCOC(=O)C1CCN(C(=O)CNC(=O)Cn2c(C)cc3ccccc3c2=O)CC1 | inconclusive [activator, single point] | –
42 | COc1ccc(-n2nc3c(c2NC(=O)C(C)Oc2ccccc2)CS(=O)(=O)C3)cc1 (stereo not drawn) | inactive | –
43 | CCOC(=O)c1cccc(NC(=O)CNS(=O)(=O)c2cccs2)c1 | inactive | –
44 | CCN1C(=O)c2cccc3c(NC(=O)c4ccc5c(c4)OCCO5)ccc1c23 | active: 25.9 µM | –
45 | CC(=O)N1c2ccc(S(=O)(=O)NCCC(=O)Nc3ccc(F)cc3C)cc2CC1C (stereo not drawn) | inactive | –
46 | O=C(O)c1cc([N+](=O)[O-])ccc1N1CCCCC1 | inactive | –

Row | SMILES | Potency | activity, positive = re-replication
47 | Cc1ccnc(NS(=O)(=O)c2ccc(NS(=O)(=O)c3ccc(Br)cc3)cc2)n1 | inactive | –
48 | CN(CC(=O)NCCc1ccc(S(N)(=O)=O)cc1)S(=O)(=O)c1ccc(Br)s1 | inconclusive [activator, single point] | –
49 | COc1cc2c(cc1NC(=S)Nc1cccc(C(F)(F)F)c1)oc1ccccc12 | inconclusive [activator, partial curve, poor fit] | –
50 | CCOC(=O)[C@H]1[C@H]2COc3ccc(Br)cc3[C@@H]2N2C(=O)c3ccc(C)cc3NC(=O)[C@@]12C | inconclusive [activator, full curve, poor fit] | –
51 | CC[C@]12c3[nH]c4cc(-c5ccco5)ccc4c3CCN1C(=O)[C@@H](CC(=O)NCCc1ccccn1)C[C@@H]2C(=O)N1CCN(C(=O)C2CC2)CC1 | inactive | –
52 | Cc1ccc(-c2cc(C(=O)N/N=C/c3c(C)nn(C)c3C)c3ccccc3n2)c(C)c1 | inconclusive [activator, single point] | –
53 | O=C(Nc1ccnn1C1CCN(Cc2ccccc2OC(F)F)CC1)c1cccc(F)c1 | inconclusive [activator, single point] | –
54 | CN(C)c1ccc(C(=O)N2CCCC(N3CCN(Cc4ccc5c(c4)OCO5)CC3)C2)cc1 (stereo not drawn) | inactive | –
55 | Cc1cc(/C=N/Nc2nc(N3CCOCC3)nc(N3CCOCC3)n2)c(C)n1-c1ccccc1 | inactive | –
56 | O=C(NOCc1ccccc1)OCc1ccccc1 | inconclusive [activator, full curve, poor fit] | –
57 | Nc1nonc1-n1nnc(C(=O)N/N=C/c2c(F)cccc2Cl)c1-c1ccc2c(c1)OCO2 | inconclusive [activator, single point] | –
58 | COc1ccc(-c2csc(Nc3ccc(S(N)(=O)=O)cc3)n2)cc1 | active: 10.3 µM | –
59 | Cc1c(NC(=O)c2cc(-n3cnnc3)ccc2Cl)cccc1-c1nc2ccccc2o1 | inactive | –
60 | O=C(c1ccccc1)N1N=C(C(F)(F)F)CC1(O)c1ccc(F)cc1 (stereo not drawn) | inactive | –
61 | CC(C)Sc1cc(N2CCCC2)nc(-c2ccc(F)cc2)n1 | inconclusive [activator, single point] | –
62 | CC1CCCC(C)N1C(=O)Cc1ccccc1 (stereo not drawn) | inconclusive [activator, single point] | –
63 | Cn1c(=O)c(-c2ccccc2)nc2ccccc21 | inconclusive [activator, full curve, poor fit] | –
64 | C=CCC1(CC=C)CCCN1Cc1nc(COc2ccccc2)no1 | inconclusive [activator, single point] | –
65 | C#CCOCCOCCOCCNc1nc(N2CCN(C(=O)[C@H](CCC(=O)O)n3cc([C@@H](N)[C@H](C)CC)nn3)CC2)nc(N2CCN(C(=O)[C@H](CCCCN)n3cc([C@@H](N)CC(N)=O)nn3)CC2)n1 | inactive | –
66 | S=c1nc(Cc2ccc(Cl)cc2)[nH]c2ccccc12 | inconclusive [activator, partial curve] | –
67 | COc1ccc(Cl)cc1N1C(=O)/C(=C/c2sccc2C)N=C1SCC(=O)NC1CC1 | inconclusive [activator, partial curve, poor fit] | –
68 | CCOc1cc(O)c(-c2[nH]ncc2-c2nc(C)cs2)cc1CC | inconclusive [activator, partial curve, poor fit] | –
